Source: the supplement of paper PMC11880418
Where a name gives a salt, the structure may show the parent alone. The list shows a part of the results. The data scatter; read single values as rough.

What follows are molecules tested on T84 (assay: ALDHbr (CSC) cell proportion score relative to DMSO vehicle (ratio to DMSO); breast (SUM159) / gastric (MKN45) / pancreatic (PANC1) / colon cancer lines; ALDHbr cells have high ALDH activity and are rich in cancer stem cells (CSC); higher = more CSC (ALDHbr) cells remaining). Conditions: 10 µM; 72 h.
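Further: High-content imaging of ALDEFLUOR-stained cells with Hoechst-labelled nuclei in 384-well plates, triplicate wells, scored as Z-score against 0.1% DMSO vehicle, negative meaning fewer ALDHbr cells.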

Q: Cc1nccn1CC1CCc2c(c3ccccc3n2C)C1=O (configuration not stated) [Ondansetron Hydrochloride] was tested. Which ALDHbr did it give?
A: 0.817

Q: Which ALDHbr does the source give for CCCN(CCC)C(=O)C(CCC(=O)O)NC(=O)c1ccccc1 (configuration not stated) [Proglumide] here?
A: 0.847

Q: How did the ALDHbr turn out when CN[C@@H]1[C@@H](O)[C@@H](O[C@@H]2[C@@H](O)[C@H](O[C@H]3OC(CN)=CC[C@H]3N)[C@@H](N)C[C@H]2N)OC[C@]1(C)O [Sisomicin sulfate] was run?
A: 1.11

Q: With CO[C@@]1(NC(=O)C(C(=O)O)c2ccc(O)cc2)C(=O)N2C(C(=O)O)=C(CSc3nnnn3C)CO[C@@H]21 (some centres not stated) [Moxalactam disodium salt] as the molecule, how does the ALDHbr read?
A: 0.934

Q: How did the ALDHbr turn out when NC[C@@H]1O[C@H](O[C@H]2[C@@H](O)[C@H](O[C@@H]3[C@@H](O)[C@H](N)C[C@H](N)[C@H]3O[C@H]3O[C@H](CN)[C@@H](O)[C@H](O)[C@H]3N)O[C@@H]2CO)[C@H](N)[C@@H](O)[C@@H]1O [Neomycin sulfate] was run?
A: 1.1

Q: With CC[C@@H](CO)NCCN[C@@H](CC)CO [Ethambutol dihydrochloride] as the molecule, how does the ALDHbr read?
A: 0.862

Q: For CCOc1ccc(Cc2nccc3cc(OCC)c(OCC)cc23)cc1OCC [Ethaverine hydrochloride], which ALDHbr is on record?
A: 0.739

Q: Which ALDHbr does the source give for CC(C)NCC(O)COc1ccc(CCOCC2CC2)cc1 (configuration not stated) [Betaxolol hydrochloride] here?
A: 1.06

Q: How did the ALDHbr turn out when Cc1cn[nH]c1 [Fomepizole] was run?
A: 0.853

Q: With CCCCCCCN(CC)CCCC(O)c1ccc(NS(C)(=O)=O)cc1 (configuration not stated) [Ibutilide fumarate] as the molecule, how does the ALDHbr read?
A: 0.774

Q: Which ALDHbr does the source give for COc1ccccc1N1CCN(CCCNc2cc(=O)n(C)c(=O)n2C)CC1 [Urapidil hydrochloride] here?
A: 1.1

Q: NC[C@H]1O[C@H](O[C@H]2[C@H](O[C@@H]3O[C@H](CO)[C@@H](O)[C@H]3O)[C@@H](O)[C@H](N)C[C@@H]2N)[C@H](N)[C@@H](O)[C@@H]1O [Ribostamycin sulfate salt] was tested. Which ALDHbr did it give?
A: 1.01

Q: O=C(O[C@@H]1C[C@@H]2C[C@H]3C[C@H](C1)N2CC3=O)c1c[nH]c2ccccc12 [Dolasetron mesilate] was tested. Which ALDHbr did it give?
A: 0.966

Q: CNCCC(Oc1ccccc1OC)c1ccccc1 (configuration not stated) [Nisoxetine hydrochloride] was tested. Which ALDHbr did it give?
A: 0.862

Q: How did the ALDHbr turn out when CCN1CCC[C@H]1CNC(=O)c1c(OC)ccc(Br)c1OC [Remoxipride Hydrochloride] was run?
A: 0.991

Q: How did the ALDHbr turn out when COc1cc(NC(C)CCCN)c2ncccc2c1 (configuration not stated) [Primaquine diphosphate] was run?
A: 0.563

Q: Cc1cc2c(cc1S(N)(=O)=O)S(=O)(=O)CCC2 [Meticrane] was tested. Which ALDHbr did it give?
A: 0.918

Q: For Nc1nc(=O)[nH]cc1F [Flucytosine], which ALDHbr is on record?
A: 1.02

Q: For COc1ccccc1O [Guaiacol], which ALDHbr is on record?
A: 0.93

Q: Which ALDHbr does the source give for NS(=O)(=O)c1cc2c(cc1Cl)NC(CC1CCCC1)NS2(=O)=O (configuration not stated) [Cyclopenthiazide] here?
A: 1.02

Q: With C[C@@H]1CCC[C@H](C)N1NC(=O)c1ccc(Cl)c(S(N)(=O)=O)c1 [Clopamide] as the molecule, how does the ALDHbr read?
A: 1.13

Q: With CC1(C)S[C@@H]2[C@H](NC(=O)Cc3ccccc3)C(=O)N2[C@H]1C(=O)O [Benzylpenicillin sodium] as the molecule, how does the ALDHbr read?
A: 0.845

Q: CCc1ccc(CCOc2ccc(CC3SC(=O)NC3=O)cc2)nc1 (configuration not stated) [Pioglitazone] was tested. Which ALDHbr did it give?
A: 0.662

Q: Which ALDHbr does the source give for CO[C@H]1/C=C/O[C@@]2(C)Oc3c(C)c(O)c4c(O)c(c(/C=N/N5CCN(C)CC5)c(O)c4c3C2=O)NC(=O)/C(C)=C\C=C\[C@H](C)[C@H](O)[C@@H](C)[C@@H](O)[C@@H](C)[C@H](OC(C)=O)[C@@H]1C [Rifampicin] here?
A: 1.01

Q: CS(=O)(=O)Nc1ccc([N+](=O)[O-])cc1Oc1ccccc1 [Nimesulide] was tested. Which ALDHbr did it give?
A: 0.894

Q: For CCCCC1C(=O)N(c2ccccc2)N(c2ccc(O)cc2)C1=O (configuration not stated) [Oxyphenbutazone], which ALDHbr is on record?
A: 1.12

Q: For COc1ccc2[nH]c([S+]([O-])Cc3ncc(C)c(OC)c3C)nc2n1 (configuration not stated) [Tenatoprazole], which ALDHbr is on record?
A: 0.85
